Over roughly 110,000 compounds, “z-score” has its median near -0.1; the highest 2% begin near 2. The list shows a part of the results. Activity calls are given as the source filed them.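 The calls were made as follows: active = z-score in the third read window above 3 or below -3; inactive = the rest.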
These molecules were tested against Metabotropic glutamate receptor 8 (Rattus norvegicus) (UniProt P70579) (assay: rat mGluR8 modulators via GIRK flux, primary screen, cell-based, thallium flux, HTS (AID 488969)). Conditions: HEK293 rat mGluR8, GIRK (G protein-gated inwardly rectifying potassium channel) thallium flux, FluoZin2; at 10 µM; stronger effect = higher value; submaximal glutamate (EC20) added with thallium.
Sequence of UniProt P70579 (P70579 whole entry, looked up): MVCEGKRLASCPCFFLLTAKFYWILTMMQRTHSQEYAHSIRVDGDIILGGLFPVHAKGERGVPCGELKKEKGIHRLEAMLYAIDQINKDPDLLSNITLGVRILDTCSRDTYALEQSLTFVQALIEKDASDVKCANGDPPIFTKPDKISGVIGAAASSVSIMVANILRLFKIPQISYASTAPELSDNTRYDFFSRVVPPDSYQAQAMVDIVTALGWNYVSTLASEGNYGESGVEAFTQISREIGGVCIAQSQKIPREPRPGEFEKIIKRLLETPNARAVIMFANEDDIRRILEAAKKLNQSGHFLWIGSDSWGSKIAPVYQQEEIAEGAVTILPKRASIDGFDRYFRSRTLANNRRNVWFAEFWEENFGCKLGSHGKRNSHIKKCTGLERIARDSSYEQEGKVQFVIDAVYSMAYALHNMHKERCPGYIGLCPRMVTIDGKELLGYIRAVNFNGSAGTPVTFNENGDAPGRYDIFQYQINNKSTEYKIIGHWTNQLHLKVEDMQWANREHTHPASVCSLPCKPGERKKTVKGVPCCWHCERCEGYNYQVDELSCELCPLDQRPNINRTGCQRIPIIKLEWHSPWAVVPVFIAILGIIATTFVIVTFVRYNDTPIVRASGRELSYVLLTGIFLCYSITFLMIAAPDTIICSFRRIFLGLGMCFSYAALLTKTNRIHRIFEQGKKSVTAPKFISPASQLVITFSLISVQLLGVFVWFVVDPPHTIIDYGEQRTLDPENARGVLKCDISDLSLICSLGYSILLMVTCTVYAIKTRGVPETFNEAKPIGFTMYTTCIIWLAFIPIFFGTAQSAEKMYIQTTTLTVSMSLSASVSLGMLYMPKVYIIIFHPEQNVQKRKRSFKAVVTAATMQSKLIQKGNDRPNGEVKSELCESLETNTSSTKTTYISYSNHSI

SMILES	z-score
CCC1CCCCN1C(=O)c1c[nH]c2ccc(S(=O)(=O)N(C)c3ccc(Cl)cc3)cc2c1=O (stereo unspecified)	-0.479
O=Cc1cn(-c2ccccc2)nc1-c1ccc2c(c1)OCCO2	-1.11
CCC(=O)Nc1sc2c(c1C#N)CC(C)(C)NC2(C)C	0.0582
COc1ccc(/C=C/C(=O)Nc2ccc(-n3nncc3-c3ccc(OC)c(OC)c3)cc2)cc1OC	-0.638
CCNC(=O)CCn1nc(-c2ccc(Cl)cc2)c2ccccc2c1=O	-0.723
COC(=O)c1ccc(NC(=O)C2CC2)o1	-0.0163
CCN1CCN(c2nc3ccccc3nc2C(C#N)S(=O)(=O)c2ccc(C)cc2)CC1 (stereo unspecified)	-0.171
COc1ccc(S(=O)(=O)Nc2ccc(S(=O)(=O)N3CCCC3)cc2)cc1	1.31
C/C=C/c1ccc(OCCCCOc2ccccc2F)c(OC)c1	-0.398
Cc1ccc(C(=O)NNc2nc3ccccc3nc2C(F)(F)F)cc1	active: 5.19
O=C(/C=C\NCC(=O)c1ccccc1)c1ccc2ccccc2c1	-0.0887
Cc1cc(C(c2ccc(C)o2)c2ccc(C)o2)c(O)c([N+](=O)[O-])c1	-1.26
CC(C)OCCCNC(=O)Cn1ncc2c(=O)oc3ccccc3c21	0.481
O=C(OCc1c(Cl)cccc1Cl)c1cccnc1	-0.283
Cc1cc(NC(=O)CSc2ncn(-c3ccccc3)n2)no1	-0.12
S=C(NCCc1ccccc1)Nc1ccccn1	0.129
Cc1csc(NC(=O)c2cccn2C)n1	0.29
CC(C)(CO)Nc1ccc([N+](=O)[O-])cc1[N+](=O)[O-]	-0.255
CCc1c(-c2n[nH]c(=S)n2Cc2ccccc2)csc1C	2.88
CCNC(=O)CSc1ncnc2sccc12	0.162
C=C(C)COc1ccc(-c2[nH]ncc2-c2ccccc2)c(O)c1	-0.178
CC(=O)NCCC(=O)Nc1ccc(C)c(F)c1	0.255
O=C(NCc1ccco1)c1cc(-c2cccc(Cl)c2)on1	0.0775
CC(=O)Nc1ccc(S(=O)(=O)NCCC(=O)NCCc2ccc(F)cc2)cc1	-0.326

SMILES	z-score
Cc1cc(C)cc(NC(=O)CSc2ncc(S(=O)(=O)c3ccccc3)c(=O)[nH]2)c1	-0.122
CCOC(=O)c1[nH]c2ccc(F)cc2c1NC(=O)CCN1CCSCC1	-0.0212
Cc1cc(C)cc(OCC(=O)Nc2ccc(N3CCN(S(C)(=O)=O)CC3)cc2)c1	-0.576
Cc1ccc(C=C2C(=O)c3ccccc3C2=O)o1	-0.113
O=S(=O)(c1ccc(F)cc1)c1nc(-c2ccco2)oc1Nc1ccc(F)cc1	0.152
CC(=O)c1cn(CCCCCCCCCCn2cc(C(C)=O)c(=O)[nH]c2=O)c(=O)[nH]c1=O	-0.0303
O=C(/C=C/c1cccc([N+](=O)[O-])c1)NCc1cccnc1	-0.187
[O-]C1=N/[N+](=C/c2ccccc2Cl)CC1	0.626
O=c1[nH]c(-c2cccnc2)nc2ccccc12	-0.073
COc1cccc(N2CCN(C(=O)NC3CCCCC3)CC2)c1	-0.123
O=C(CN1CCc2ccccc2C1)c1cccs1	0.0745
Cc1ccc(-n2c(=O)c3c(n4cnnc24)-c2ccccc2CC32CCCCC2)cc1	-0.463
CN1CCN(S(=O)(=O)c2ccc(N)cc2)CC1	0.149
CC(C)(C)NC(=O)COC(=O)/C=C/c1ccc(F)cc1	-0.0768
O=C(Nc1ccn(Cc2c(F)c(F)cc(F)c2F)n1)c1ccc(COc2cc(Cl)ccc2Cl)o1	-0.0665
COc1ccccc1NC(=S)Nc1ccccc1F	-0.185
Cc1ccc(C(=O)Nc2ccc3c(c2)nc2n3CCSC2)cc1	0.623
CCCS(=O)(=O)N1CCCC(C(=O)NCCCN2CCN(c3ccc(F)cc3)CC2)C1 (stereo unspecified)	0.281
COc1ccc(C2=NN(C(=O)CSc3nc4ccccc4s3)C(c3ccc(F)cc3)C2)cc1 (stereo unspecified)	0.00961
CN(C)NC1CCS(=O)(=O)C1 (stereo unspecified)	-0.105
N#CCCNCC1(c2ccccc2)CCCC1	-0.298
Cc1ccc(-c2nnc(N3CCN(C(=O)CN4CCOCC4)CC3)c3ccccc23)cc1	-0.0936
COc1ccc(N2CCN(C(=O)C3CCN(S(=O)(=O)N4CCOCC4)CC3)CC2)cc1	-0.182
CO/N=C/c1ccc(N2CCN(C(=O)c3ccc(C)cc3)CC2)c([N+](=O)[O-])c1	-0.316

SMILES	z-score
CCOc1ccc(OCC)c(-c2c(=O)n(OCc3ccccc3Br)c3ccccc3[n+]2[O-])c1	1.8
CN1CCN(CC(=O)N/N=C\c2c[nH]c3ccccc23)CC1	0.264
Cc1nc(NC(=O)c2ccc(F)cc2)sc1C(=O)Nc1ccc2c(c1)CCC2	-0.189
CCn1nc(NS(=O)(=O)c2ccccc2)c2cc3cccc(C)c3nc21	-0.264
CC12CCC(C/C1=N\OC(=O)c1ccc(F)cc1)C2(C)C (stereo unspecified)	-0.0195
O=C(c1ccc(CS(=O)(=O)c2ccccc2)o1)N1CCN(c2ncccn2)CC1	-0.184
Cc1ccc(-c2nc3ccccc3c(=O)n2Cc2ccccc2)cc1	-1.92
COc1ccc(C(=O)N2CCN(c3nc4cc(C)ccc4cc3C#N)CC2)c(OC)c1	0.165
CCOC(=O)c1[nH]c2cc(OC)c(OC)cc2c1NC(=O)C(C)N1CCN(Cc2ccccc2)CC1 (stereo unspecified)	0.951
Cc1ccc(NC(=S)NNC(=O)c2ccccc2OC(F)F)cc1	0.966
CCOC(=O)c1[nH]c(C)c(C(=O)N2CCN(c3ccc(F)cc3)CC2)c1C	0.736
Cc1nc(C(F)(F)F)nc(Nc2ccc(N=Nc3ccccc3)cc2)c1C#N	-0.051
COC(=O)c1ccc(Sc2ccccc2NS(=O)(=O)c2ccc(NC(C)=O)cc2)nc1	0.14
CC(C)N1C(=O)c2ccc(C(=O)O)cc2C1=O	0.911
COC(=O)Nc1sc2c(c1C(=O)NCc1ccco1)CCCC2	-0.564
CC(C)C(=O)Nc1cccc(C(=O)Nc2nnc(C(C)(C)C)s2)c1	-0.135
Cc1nn(C(C)c2n[nH]c(=S)n2-c2ccc(F)cc2)c(C)c1[N+](=O)[O-] (stereo unspecified)	0.274
O=C(O)c1cccc(NC(=O)C2CCCO2)c1 (stereo unspecified)	-0.529
c1coc(-c2nnc(-c3ccc4c(c3)OCO4)o2)c1	0.449
CCn1c(SCC(=O)NCc2ccco2)nnc1-c1ccc(N)cc1	1.58
O=C(Cc1ccccc1)NC(=S)Nc1ccc2oc(-c3ccccc3)nc2c1	-0.179
Cc1[nH]nc(N2CCCCCC2)c1[N+](=O)[O-]	0.256
COc1cc(NS(=O)(=O)c2cccc3nsnc23)c(C(=O)O)cc1OC	-0.281
